# The other results are listed elsewhere or left out.
# Columns and labels:
# [1] = test system: HSkMC (human skeletal muscle cells); assay: cytotoxicity call (relative viability < 0.9); settings: 10 µM
# [2] = test system: HepG2; assay: cytotoxicity call (relative viability < 0.9); settings: 10 µM
# [3] = test system: S. aureus RN4220; assay: growth inhibition call (relative growth <= 0.2); settings: 50 µM
Structure (SMILES),cytotoxicity call [1],cytotoxicity call [2],growth inhibition call [3]
C[C@H](CO)N1C[C@H](C)[C@H](CN(C)Cc2ccc3c(c2)OCO3)OCCCC[C@H](C)Oc2ccc(NC(=O)Nc3ccc(C(F)(F)F)cc3)cc2C1=O,active,active,inactive
CC(C)C#Cc1ccc2c(c1)O[C@@H](CN(C)C(=O)c1cccc(F)c1)[C@H](C)CN([C@@H](C)CO)S2(=O)=O,inactive,inactive,inactive
C[C@@H]1CCCCO[C@H](CN(C)C(=O)Cc2ccccc2)[C@H](C)CN([C@@H](C)CO)C(=O)c2cc(NC(=O)Nc3ccc(F)cc3)ccc2O1,inactive,inactive,inactive
C1CC1c1noc(C2CNC2)n1,inactive,inactive,inactive
C[C@@H]1CN([C@@H](C)CO)C(=O)Cc2cc(NS(=O)(=O)c3cccs3)ccc2O[C@@H]1CN(C)S(C)(=O)=O,inactive,inactive,inactive
COc1ccc(CN(C)C[C@H]2OCCCC[C@@H](C)Oc3ccc(NS(=O)(=O)c4cccs4)cc3C(=O)N([C@H](C)CO)C[C@H]2C)cc1,inactive,inactive,inactive
C[C@@H]1CCCCO[C@@H](CN(C)C(=O)Nc2ccccc2)[C@@H](C)CN([C@H](C)CO)C(=O)c2cc(NS(=O)(=O)c3ccc(F)cc3)ccc2O1,inactive,inactive,inactive
CC=Cc1ccc2n(c1=O)C[C@H]1[C@H](CO)[C@@H](C(=O)NCCc3cn(C)cn3)[C@@H]2N1C(=O)C1CC1,inactive,inactive,inactive
COc1ccc(S(=O)(=O)Nc2ccc3c(c2)C(=O)N([C@@H](C)CO)C[C@@H](C)[C@H](CN(C)Cc2ccc(Cl)c(Cl)c2)O3)cc1,inactive,active,inactive
C[C@H](CO)N1C[C@H](C)[C@@H](CN(C)Cc2ccncc2)Oc2ccc(NC(=O)CCCN(C)C)cc2CC1=O,inactive,inactive,inactive
Cc1noc(C)c1S(=O)(=O)Nc1ccc2c(c1)C(=O)N([C@@H](C)CO)C[C@H](C)[C@H](CN(C)Cc1ccc(-c3ccccc3)cc1)O2,inactive,inactive,inactive
C[C@@H]1CN([C@H](C)CO)C(=O)c2cccc(NC(=O)Nc3cccc4ccccc34)c2O[C@@H]1CN(C)C(=O)NC1CCCCC1,inactive,inactive,inactive
O=C(C[C@@H]1CC[C@@H]2[C@H](COC[C@H](O)CN2S(=O)(=O)c2cccc(F)c2)O1)NCCCN1CCOCC1,inactive,inactive,inactive
CS(=O)(=O)N1[C@@H]2c3cccc(=O)n3C[C@H]1[C@H](CO)[C@H]2C(=O)NCc1ccccc1,inactive,inactive,inactive
Cc1noc(C)c1NC(=O)Nc1ccc2c(c1)C(=O)N([C@@H](C)CO)C[C@@H](C)[C@H](CN(C)Cc1ccc(C(F)(F)F)cc1)OCCCC[C@@H](C)O2,inactive,inactive,inactive
CC(=O)NCCCC[C@@H]1NC(=O)[C@@H]2C[C@H](C(=O)NCCCCCCN)[C@H](c3cccc(OCCO)c3)N2C1=O,inactive,inactive,inactive
Clc1ccccc1C(c1ccccc1)(c1ccccc1)n1ccnc1,active,inactive,inactive
C[C@H](CO)N1C[C@H](C)[C@H](CN(C)Cc2ccc(Oc3ccccc3)cc2)Oc2ccc(NC(=O)CCCN(C)C)cc2C1=O,inactive,active,inactive
O=C(C[C@H]1CC[C@H]2[C@@H](COC[C@H](O)CN2C(=O)Nc2cccc(Cl)c2)O1)NCCCN1CCOCC1,inactive,inactive,inactive
N[C@@H](CSCc1ccccc1Cl)C(=O)O,inactive,inactive,inactive
Cc1noc(C)c1NC(=O)Nc1ccc2c(c1)C(=O)N([C@@H](C)CO)C[C@H](C)[C@@H](CN(C)S(=O)(=O)c1ccc(Cl)cc1)OCCCC[C@H](C)O2,inactive,inactive,inactive
CC(=O)N1[C@@H](CO)[C@H](c2ccccc2)C12CN(C(=O)CN1CCOCC1)C2,inactive,inactive,inactive
CN1CCN(C(=O)C[C@@H]2C[C@@H]3c4cc(NC(=O)c5ccc6c(c5)OCO6)ccc4O[C@@H]3[C@H](CO)O2)CC1,inactive,inactive,inactive
Cc1ccc(S(=O)(=O)N(C)C[C@H]2Oc3ccc(NS(=O)(=O)c4cn(C)cn4)cc3C(=O)N([C@@H](C)CO)C[C@H]2C)cc1,inactive,inactive,inactive
C[C@H]1CCCCO[C@@H](CN(C)Cc2ccccc2)[C@@H](C)CN([C@@H](C)CO)C(=O)c2cc(NC(=O)Nc3ccc(C(F)(F)F)cc3)ccc2O1,active,active,inactive
C[C@H](O)C#Cc1ccc2c(c1)O[C@H](CN(C)C(=O)Nc1ccccc1)[C@H](C)CN([C@@H](C)CO)S2(=O)=O,inactive,inactive,inactive
O=C(C[C@H]1CC[C@H]2[C@@H](COC[C@H](O)CN2C(=O)Nc2cc(Cl)cc(Cl)c2)O1)N1CCOCC1,inactive,inactive,inactive
C[C@@H]1CN([C@@H](C)CO)C(=O)c2cc(NS(=O)(=O)c3ccccc3)ccc2O[C@@H](C)CCCCO[C@@H]1CN(C)C(=O)Nc1ccc(C(F)(F)F)cc1,active,inactive,inactive

# From the antibiotic and cytotoxicity screens of Wong et al. (2023)
